Changes are numbered by the printed parent chain; changes in the protein carry UniProt numbers. The list shows a part of the results.
T1: RBFOX1 RRM (Homo sapiens, UniProt Q9NWB1 109-208)
T1 sequence: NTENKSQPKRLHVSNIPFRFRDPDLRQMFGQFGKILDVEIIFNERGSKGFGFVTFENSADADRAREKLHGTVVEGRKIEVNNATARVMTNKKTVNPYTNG

B1: GGUACUA (DNA:RNA)
RNA: GGGAGACCGGAAUUCAGAUUGUCCGGUACUAUUAAAUCCCGUCGUAGCCACCA
DNA 1: CAATCTGAATTCCGGTCTCCC
DNA 2: TGGTGGCTACGACGGGATT
B2: UCGUCUC (DNA:RNA)
RNA: B1 RNA with G25U, G26C, U27G, A28U, A31C
DNA 1: CAATCTGAATTCCGGTCTCCC
DNA 2: TGGTGGCTACGACGGGATT
B3: CGCACGG (DNA:RNA)
RNA: B1 RNA with G25C, U27C, U30G, A31G
DNA 1: CAATCTGAATTCCGGTCTCCC
DNA 2: TGGTGGCTACGACGGGATT
B4: UAAGGAA (DNA:RNA)
RNA: B1 RNA with G25U, G26A, U27A, A28G, C29G, U30A
DNA 1: CAATCTGAATTCCGGTCTCCC
DNA 2: TGGTGGCTACGACGGGATT
B5: GCAGUCU (DNA:RNA)
RNA: B1 RNA with G26C, U27A, A28G, C29U, U30C, A31U
DNA 1: CAATCTGAATTCCGGTCTCCC
DNA 2: TGGTGGCTACGACGGGATT
B6: GUCAAUA (DNA:RNA)
RNA: B1 RNA with G26U, U27C, C29A
DNA 1: CAATCTGAATTCCGGTCTCCC
DNA 2: TGGTGGCTACGACGGGATT
B7: GUACGCC (DNA:RNA)
RNA: B1 RNA with G26U, U27A, A28C, C29G, U30C, A31C
DNA 1: CAATCTGAATTCCGGTCTCCC
DNA 2: TGGTGGCTACGACGGGATT
B8: AACUAUU (DNA:RNA)
RNA: B1 RNA with G25A, G26A, U27C, A28U, C29A, A31U
DNA 1: CAATCTGAATTCCGGTCTCCC
DNA 2: TGGTGGCTACGACGGGATT
B9: AGUCUGU (DNA:RNA)
RNA: B1 RNA with G25A, A28C, C29U, U30G, A31U
DNA 1: CAATCTGAATTCCGGTCTCCC
DNA 2: TGGTGGCTACGACGGGATT
B10: GUGGCAA (DNA:RNA)
RNA: B1 RNA with G26U, U27G, A28G, U30A
DNA 1: CAATCTGAATTCCGGTCTCCC
DNA 2: TGGTGGCTACGACGGGATT
B11: GAUUGUA (DNA:RNA)
RNA: B1 RNA with G26A, A28U, C29G
DNA 1: CAATCTGAATTCCGGTCTCCC
DNA 2: TGGTGGCTACGACGGGATT
B12: GUCGCCA (DNA:RNA)
RNA: B1 RNA with G26U, U27C, A28G, U30C
DNA 1: CAATCTGAATTCCGGTCTCCC
DNA 2: TGGTGGCTACGACGGGATT
B13: UCUUUUU (DNA:RNA)
RNA: B1 RNA with G25U, G26C, A28U, C29U, A31U
DNA 1: CAATCTGAATTCCGGTCTCCC
DNA 2: TGGTGGCTACGACGGGATT
B14: GACUUAC (DNA:RNA)
RNA: B1 RNA with G26A, U27C, A28U, C29U, U30A, A31C
DNA 1: CAATCTGAATTCCGGTCTCCC
DNA 2: TGGTGGCTACGACGGGATT
B15: CUCUCCU (DNA:RNA)
RNA: B1 RNA with G25C, G26U, U27C, A28U, U30C, A31U
DNA 1: CAATCTGAATTCCGGTCTCCC
DNA 2: TGGTGGCTACGACGGGATT
B16: GCCGCAG (DNA:RNA)
RNA: B1 RNA with G26C, U27C, A28G, U30A, A31G
DNA 1: CAATCTGAATTCCGGTCTCCC
DNA 2: TGGTGGCTACGACGGGATT
B17: CUUGGAC (DNA:RNA)
RNA: B1 RNA with G25C, G26U, A28G, C29G, U30A, A31C
DNA 1: CAATCTGAATTCCGGTCTCCC
DNA 2: TGGTGGCTACGACGGGATT
B18: CACACUG (DNA:RNA)
RNA: B1 RNA with G25C, G26A, U27C, A31G
DNA 1: CAATCTGAATTCCGGTCTCCC
DNA 2: TGGTGGCTACGACGGGATT
B19: CAGAACC (DNA:RNA)
RNA: B1 RNA with G25C, G26A, U27G, C29A, U30C, A31C
DNA 1: CAATCTGAATTCCGGTCTCCC
DNA 2: TGGTGGCTACGACGGGATT
B20: AGGUUAA (DNA:RNA)
RNA: B1 RNA with G25A, U27G, A28U, C29U, U30A
DNA 1: CAATCTGAATTCCGGTCTCCC
DNA 2: TGGTGGCTACGACGGGATT
B21: UACAUGC (DNA:RNA)
RNA: B1 RNA with G25U, G26A, U27C, C29U, U30G, A31C
DNA 1: CAATCTGAATTCCGGTCTCCC
DNA 2: TGGTGGCTACGACGGGATT
B22: UAGGCUA (DNA:RNA)
RNA: B1 RNA with G25U, G26A, U27G, A28G
DNA 1: CAATCTGAATTCCGGTCTCCC
DNA 2: TGGTGGCTACGACGGGATT
B23: AGCUGUA (DNA:RNA)
RNA: B1 RNA with G25A, U27C, A28U, C29G
DNA 1: CAATCTGAATTCCGGTCTCCC
DNA 2: TGGTGGCTACGACGGGATT
B24: UGUAGUU (DNA:RNA)
RNA: B1 RNA with G25U, C29G, A31U
DNA 1: CAATCTGAATTCCGGTCTCCC
DNA 2: TGGTGGCTACGACGGGATT
B25: AACACAA (DNA:RNA)
RNA: B1 RNA with G25A, G26A, U27C, U30A
DNA 1: CAATCTGAATTCCGGTCTCCC
DNA 2: TGGTGGCTACGACGGGATT
B26: AUGCCUA (DNA:RNA)
RNA: B1 RNA with G25A, G26U, U27G, A28C
DNA 1: CAATCTGAATTCCGGTCTCCC
DNA 2: TGGTGGCTACGACGGGATT
B27: AUCGCAU (DNA:RNA)
RNA: B1 RNA with G25A, G26U, U27C, A28G, U30A, A31U
DNA 1: CAATCTGAATTCCGGTCTCCC
DNA 2: TGGTGGCTACGACGGGATT
B28: AUUCCUU (DNA:RNA)
RNA: B1 RNA with G25A, G26U, A28C, A31U
DNA 1: CAATCTGAATTCCGGTCTCCC
DNA 2: TGGTGGCTACGACGGGATT
B29: UUACGGC (DNA:RNA)
RNA: GGGAGACCGGAAUUCAGAUUGUCCUUACGGCUUAAAUCCCGUCGUAGCCACCA
DNA 1: CAATCTGAATTCCGGTCTCCC
DNA 2: TGGTGGCTACGACGGGATT
B30: UUUGCAC (DNA:RNA)
RNA: B29 RNA with A27U, C28G, G29C, G30A
DNA 1: CAATCTGAATTCCGGTCTCCC
DNA 2: TGGTGGCTACGACGGGATT
B31: ACGACAG (DNA:RNA)
RNA: B1 RNA with G25A, G26C, U27G, U30A, A31G
DNA 1: CAATCTGAATTCCGGTCTCCC
DNA 2: TGGTGGCTACGACGGGATT

The binders below were run against T1, RBFOX1 RRM (assay: EMSA; HiTS-Eq, 1 nM pool, 10 min; buffer printed only for the single-RNA assays: 10 mM Tris pH 7.5, 150 mM NaCl, 3.4 mM EDTA, 0.001% NP-40, 30 C). Details: tags: His6 N-terminal (pET28a); label: 5' 32P.
Outline: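 A pool of RNA with 7 randomized nucleotides, 5′-radiolabelled and with DNA-annealed flanks, was equilibrated at 1 nM for 10 min in 50 µL with purified RbFox RRM, wild type or mutant, across increasing protein concentrations. Free RNA was separated by 8% native PAGE, excised, reverse-transcribed, barcoded by PCR and sequenced. Relative association constants were obtained from read-count changes of each RNA species versus the control reaction and normalised to the cognate motif.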

Binder | binding signal
B1 | 0.00593 KA relative to UGCAUGU
B2 | 0.013 KA relative to UGCAUGU
B3 | 0.0278 KA relative to UGCAUGU
B4 | 0.00729 KA relative to UGCAUGU
B5 | 0.0105 KA relative to UGCAUGU
B6 | 0.00276 KA relative to UGCAUGU
B7 | 0.00856 KA relative to UGCAUGU
B8 | 0.00118 KA relative to UGCAUGU
B9 | 0.0142 KA relative to UGCAUGU
B10 | 0.0147 KA relative to UGCAUGU
B11 | 0.0149 KA relative to UGCAUGU
B12 | 0.0103 KA relative to UGCAUGU
B13 | 0.014 KA relative to UGCAUGU
B14 | 0.00749 KA relative to UGCAUGU
B15 | 0.00431 KA relative to UGCAUGU
B16 | 0.0109 KA relative to UGCAUGU

Binder | binding signal
B17 | 0.00562 KA relative to UGCAUGU
B18 | 0.00466 KA relative to UGCAUGU
B19 | 0.00361 KA relative to UGCAUGU
B20 | 0.00451 KA relative to UGCAUGU
B21 | 0.0112 KA relative to UGCAUGU
B22 | 0.0122 KA relative to UGCAUGU
B23 | 0.00783 KA relative to UGCAUGU
B24 | 0.0111 KA relative to UGCAUGU
B25 | 0.00155 KA relative to UGCAUGU
B26 | 0.00728 KA relative to UGCAUGU
B27 | 0.00791 KA relative to UGCAUGU
B28 | 0.00315 KA relative to UGCAUGU
B29 | 0.00771 KA relative to UGCAUGU
B30 | 0.0223 KA relative to UGCAUGU
B31 | 0.00464 KA relative to UGCAUGU

Source: paper PMC9911399, “Two distinct binding modes provide the RNA-binding protein RbFox with extraordinary sequence specificity”
